# Laboratory results: PubChem BioAssay AID330 (DTP/NCI, 2004)
# Several values for one entry are separate records, joined by “and”; a condition that tells them apart may be missing. Identical values can stand only once. This continues a long series; more values of the same kind are listed elsewhere. Toxic doses and inconclusive results are not listed.
# Test system: P388 leukemia ip, CD2F1 mice, survival T/C
# Assay: NCI In Vivo Anticancer Drug Screen. Data for tumor model P388 Leukemia (intraperitoneal) in CD2F1 (CDF1) mice
# Details: endpoint: median survival time, higher = longer survival
# Procedure: The antitumor activity of compounds was measured in mice bearing transplantable tumors. Survival or tumor size were measured and the results are expressed as the measurement made in the treated group (T) divided by the measurement made in the vehicle treated control group (C). The tumor model used in this assay is P388 Leukemia (intraperitoneal) in CD2F1 (CDF1) mice
smiles,measurement,setting,value
O=C1c2ccccc2C(=O)c2c(NCCNCCO)ccc(NCCNCCO)c21,T/C,"dose: 0.5 mg/kg/injection, schedule: Q01DX009 (ip), vehicle: water",155 % of control and 161 % of control
same,T/C,"dose: 1.0 mg/kg/injection, schedule: Q01DX009 (ip), vehicle: Klucel (hydroxypropylcellulose) (HPC)",167 % of control
same,T/C,"dose: 1.0 mg/kg/injection, schedule: Q01DX009 (ip), vehicle: saline with Tween-80",170 % of control
same,T/C,"dose: 1.0 mg/kg/injection, schedule: Q01DX009 (ip), vehicle: water",154 % of control and 180 % of control
same,T/C,"dose: 1.25 mg/kg/injection, schedule: Q01DX005 (ip), vehicle: other",191 % of control
same,T/C,"dose: 1.25 mg/kg/injection, schedule: Q01DX009 (ip), vehicle: distilled water + Tween-80",189 % of control
same,T/C,"dose: 2.0 mg/kg/injection, schedule: Q01DX009 (ip), vehicle: Klucel (hydroxypropylcellulose) (HPC)",169 % of control and 174 % of control and 191 % of control
same,T/C,"dose: 2.0 mg/kg/injection, schedule: Q01DX009 (ip), vehicle: acid diluted with saline",215 % of control and 233 % of control
same,T/C,"dose: 2.0 mg/kg/injection, schedule: Q01DX009 (ip), vehicle: saline with Tween-80",228 % of control
same,T/C,"dose: 2.0 mg/kg/injection, schedule: Q01DX009 (ip), vehicle: water",162 % of control and 200 % of control
same,T/C,"dose: 2.5 mg/kg/injection, schedule: Q01DX005 (ip), vehicle: other",198 % of control
same,T/C,"dose: 2.5 mg/kg/injection, schedule: Q01DX009 (ip), vehicle: distilled water + Tween-80",222 % of control
same,T/C,"dose: 2.5 mg/kg/injection, schedule: Q01DX009 (ip), vehicle: saline",181 % of control
same,T/C,"dose: 2.5 mg/kg/injection, schedule: Q01DX009 (ip), vehicle: water",187 % of control
same,T/C,"dose: 3.12 mg/kg/injection, schedule: Q01DX009 (ip), vehicle: saline",169 % of control
same,T/C,"dose: 4.0 mg/kg/injection, schedule: Q01DX009 (ip), vehicle: Klucel (hydroxypropylcellulose) (HPC)",181 % of control and 193 % of control and 194 % of control
same,T/C,"dose: 4.0 mg/kg/injection, schedule: Q01DX009 (ip), vehicle: acid diluted with saline",242 % of control and 248 % of control
same,T/C,"dose: 4.0 mg/kg/injection, schedule: Q01DX009 (ip), vehicle: other",159 % of control
same,T/C,"dose: 4.0 mg/kg/injection, schedule: Q01DX009 (ip), vehicle: water",207 % of control and 245 % of control
same,T/C,"dose: 4.0 mg/kg/injection, schedule: Q04DX003 (ip), vehicle: Klucel (hydroxypropylcellulose) (HPC)",155 % of control
same,T/C,"dose: 5.0 mg/kg/injection, schedule: Q01DX005 (ip), vehicle: other",260 % of control
same,T/C,"dose: 5.0 mg/kg/injection, schedule: Q01DX009 (ip), vehicle: distilled water + Tween-80",275 % of control
same,T/C,"dose: 5.0 mg/kg/injection, schedule: Q01DX009 (ip), vehicle: saline",189 % of control
same,T/C,"dose: 5.0 mg/kg/injection, schedule: Q01DX009 (ip), vehicle: water",252 % of control
same,T/C,"dose: 6.25 mg/kg/injection, schedule: Q01DX009 (ip), vehicle: saline",210 % of control and 252 % of control
same,T/C,"dose: 8.0 mg/kg/injection, schedule: Q01DX009 (ip), vehicle: Klucel (hydroxypropylcellulose) (HPC)",174 % of control and 179 % of control and 246 % of control
same,T/C,"dose: 8.0 mg/kg/injection, schedule: Q01DX009 (ip), vehicle: acid diluted with saline",186 % of control and 379 % of control
same,T/C,"dose: 8.0 mg/kg/injection, schedule: Q01DX009 (ip), vehicle: other",150 % of control
same,T/C,"dose: 8.0 mg/kg/injection, schedule: Q01DX009 (ip), vehicle: saline",336 % of control
same,T/C,"dose: 8.0 mg/kg/injection, schedule: Q01DX009 (ip), vehicle: water",261 % of control and 272 % of control
same,T/C,"dose: 8.0 mg/kg/injection, schedule: Q04DX003 (ip), vehicle: Klucel (hydroxypropylcellulose) (HPC)",163 % of control
same,T/C,"dose: 10.0 mg/kg/injection, schedule: Q01DX005 (ip), vehicle: other",260 % of control
same,T/C,"dose: 10.0 mg/kg/injection, schedule: Q01DX009 (ip), vehicle: distilled water + Tween-80",275 % of control
same,T/C,"dose: 10.0 mg/kg/injection, schedule: Q01DX009 (ip), vehicle: saline",258 % of control
same,T/C,"dose: 10.0 mg/kg/injection, schedule: Q01DX009 (ip), vehicle: water",291 % of control
same,T/C,"dose: 10.8 mg/kg/injection, schedule: Q01DX009 (ip), vehicle: saline",297 % of control
same,T/C,"dose: 12.5 mg/kg/injection, schedule: Q01DX009 (ip), vehicle: Klucel (hydroxypropylcellulose) (HPC)",267 % of control and 268 % of control
same,T/C,"dose: 12.5 mg/kg/injection, schedule: Q01DX009 (ip), vehicle: saline",164 % of control and 231 % of control and 240 % of control
same,T/C,"dose: 13.0 mg/kg/injection, schedule: Q01DX005 (ip), vehicle: saline",560 % of control
same,T/C,"dose: 16.0 mg/kg/injection, schedule: Q01DX009 (ip), vehicle: Klucel (hydroxypropylcellulose) (HPC)",186 % of control and 460 % of control
same,T/C,"dose: 16.0 mg/kg/injection, schedule: Q01DX009 (ip), vehicle: acid diluted with saline",158 % of control and 416 % of control
same,T/C,"dose: 16.0 mg/kg/injection, schedule: Q01DX009 (ip), vehicle: other",111 % of control
same,T/C,"dose: 16.0 mg/kg/injection, schedule: Q01DX009 (ip), vehicle: water",272 % of control and 423 % of control
same,T/C,"dose: 16.0 mg/kg/injection, schedule: Q04DX003 (ip), vehicle: Klucel (hydroxypropylcellulose) (HPC)",206 % of control
same,T/C,"dose: 16.0 mg/kg/injection, schedule: Q04DX003 (ip), vehicle: saline with Tween-80",234 % of control
same,T/C,"dose: 18.0 mg/kg/injection, schedule: Q01DX009 (ip), vehicle: saline",315 % of control and 409 % of control
same,T/C,"dose: 20.0 mg/kg/injection, schedule: Q01DX005 (ip), vehicle: other",260 % of control
same,T/C,"dose: 20.0 mg/kg/injection, schedule: Q01DX005 (ip), vehicle: saline",401 % of control
same,T/C,"dose: 20.0 mg/kg/injection, schedule: Q01DX009 (ip), vehicle: saline",86 % of control
same,T/C,"dose: 20.0 mg/kg/injection, schedule: Q01DX009 (ip), vehicle: water",262 % of control
same,T/C,"dose: 20.0 mg/kg/injection, schedule: Q04DX003 (ip), vehicle: saline",285 % of control
same,T/C,"dose: 21.6 mg/kg/injection, schedule: Q01DX005 (ip), vehicle: saline",560 % of control
same,T/C,"dose: 21.6 mg/kg/injection, schedule: Q01DX005 (iv), vehicle: saline",87 % of control
same,T/C,"dose: 25.0 mg/kg/injection, schedule: Q01DX005 (ip), vehicle: saline",330 % of control
same,T/C,"dose: 25.0 mg/kg/injection, schedule: Q01DX009 (ip), vehicle: Klucel (hydroxypropylcellulose) (HPC)",269 % of control and 189 % of control
same,T/C,"dose: 25.0 mg/kg/injection, schedule: Q01DX009 (ip), vehicle: saline",105 % of control and 123 % of control and 297 % of control
same,T/C,"dose: 28.8 mg/kg/injection, schedule: Q04DX003 (ip), vehicle: saline",446 % of control
same,T/C,"dose: 32.0 mg/kg/injection, schedule: Q01DX009 (ip), vehicle: Klucel (hydroxypropylcellulose) (HPC)",229 % of control and 86 % of control and 94 % of control
same,T/C,"dose: 32.0 mg/kg/injection, schedule: Q01DX009 (ip), vehicle: saline",91 % of control
same,T/C,"dose: 32.0 mg/kg/injection, schedule: Q01DX009 (ip), vehicle: water",90 % of control
same,T/C,"dose: 32.0 mg/kg/injection, schedule: Q04DX003 (ip), vehicle: Klucel (hydroxypropylcellulose) (HPC)",189 % of control
same,T/C,"dose: 32.0 mg/kg/injection, schedule: Q04DX003 (ip), vehicle: saline with Tween-80",267 % of control
same,T/C,"dose: 50.0 mg/kg/injection, schedule: Q01DX009 (ip), vehicle: Klucel (hydroxypropylcellulose) (HPC)",90 % of control
same,T/C,"dose: 64.0 mg/kg/injection, schedule: Q04DX003 (ip), vehicle: Klucel (hydroxypropylcellulose) (HPC)",232 % of control
same,T/C,"dose: 256.0 mg/kg/injection, schedule: Q04DX003 (ip), vehicle: saline",92 % of control and 98 % of control
same,T/C,"dose: 400.0 mg/kg/injection, schedule: Q04DX003 (ip), vehicle: Klucel (hydroxypropylcellulose) (HPC)",92 % of control
